{"source": "the supplement of paper PMC10037445", "key": {"[1]": {"system": "RAW-Dual", "experiment": "IRF Lucia reporter activity, fold change vs agonist alone; cytotoxicity flag (confluency mask): not cytotoxic; higher = enhanced IRF activity", "procedure,_shortened": "(§1)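 Supernatant from RAW-Dual macrophages was read after 20 hours for IRF by QuantiLuc luminescence and for NF-κB by QuantiBlue absorbance at 620 nm. The cells (50,000 cells/well in DMEM, 384-well plates, 37 °C, 5% CO2) had received 50 nL of library stock by pin tool and, 1 h later, a PRR agonist. Reporter activity is expressed relative to agonist-alone wells as fold change, and wells were flagged cytotoxic if IncuCyte confluency was under 70% of agonist controls in both mask sets.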"}, "[2]": {"system": "RAW-Dual", "experiment": "IRF Lucia reporter activity, fold change vs agonist alone; higher = enhanced IRF activity", "conditions": "cytotoxicity flag (confluency mask): not cytotoxic, agonist: MPLA (TLR4) […]", "procedure,_shortened": "as §1"}, "[3]": {"conditions": "agonist: 3'3'-cGAMP (STING) 10 ug/mL"}, "[4]": {"conditions": "library stock concentration (final ~1000-fold dilution): 10 mM"}}, "note": "Over roughly 2,900 compounds, “IRF Lucia reporter activity, fold change vs agonist alone” has its median near 0.9; the highest 2% begin near 2.8. The list shows a part of the results.", "data": [{"smiles": "COc1cc(C2CC(c3ccccc3)=NN2C(N)=S)cc(OC)c1OC", "note": "(stereo not given) (library stock concentration (final ~1000-fold dilution): 10 mM)", "values": [{"measurement": "IRF Lucia reporter activity", "setting": "[1]; [3]", "value": 0.274}, {"measurement": "IRF Lucia reporter activity", "setting": "[1]; agonist: LPS (TLR4) 0.1 ug/mL", "value": 0.807}]}, {"smiles": "Cn1cnc(-c2cc3nccc(Oc4ccc(NC(=S)NC(=O)Cc5ccccc5)cc4F)c3s2)c1", "values": [{"measurement": "IRF Lucia reporter activity", "setting": "[2]; [4]", "value": 0.567}]}, {"smiles": "Cn1cnc(-c2cc3nccc(Oc4ccc(NC(=S)NC(=O)Cc5ccccc5)cc4F)c3s2)c1", "note": "(library stock concentration (final ~1000-fold dilution): 10 mM)", "values": [{"measurement": "IRF Lucia reporter activity", "setting": "[1]; [3]", "value": 0.257}, {"measurement": "IRF Lucia reporter activity", "setting": "[1]; agonist: LPS (TLR4) 0.1 ug/mL", "value": 0.579}]}, {"smiles": "Cl.Cl.c1cc(-c2cnn3cc(-c4ccc(OCCN5CCCCC5)cc4)cnc23)ccn1", "values": [{"measurement": "IRF Lucia reporter activity", "setting": "[2]; library stock concentration (final ~1000-fold dilution): 10 mM water", "value": 1.03}]}, {"smiles": "Cl.Cl.c1cc(-c2cnn3cc(-c4ccc(OCCN5CCCCC5)cc4)cnc23)ccn1", "note": "(library stock concentration (final ~1000-fold dilution): 10 mM water)", "values": [{"measurement": "IRF Lucia reporter activity", "setting": "[1]; [3]", "value": 0.04}, {"measurement": "IRF Lucia reporter activity", "setting": "[1]; agonist: LPS (TLR4) 0.1 ug/mL", "value": 0.171}]}, {"smiles": "CCC(=O)N1CCN(c2ccc(-n3c(=O)ccc4cnc5ccc(-c6cnc7ccccc7c6)cc5c43)cc2C(F)(F)F)CC1", "values": [{"measurement": "IRF Lucia reporter activity", "setting": "[2]; library stock concentration (final ~1000-fold dilution): 2 mM", "value": 1.07}]}, {"smiles": "CCC(=O)N1CCN(c2ccc(-n3c(=O)ccc4cnc5ccc(-c6cnc7ccccc7c6)cc5c43)cc2C(F)(F)F)CC1", "note": "(library stock concentration (final ~1000-fold dilution): 2 mM)", "values": [{"measurement": "IRF Lucia reporter activity", "setting": "[1]; [3]", "value": 0.336}, {"measurement": "IRF Lucia reporter activity", "setting": "[1]; agonist: LPS (TLR4) 0.1 ug/mL", "value": 0.385}]}, {"smiles": "CCNC1(C(N)=O)CCN(c2ncnc3c2nc(-c2ccccc2Cl)n3-c2ccc(Cl)cc2)CC1.Cl", "note": "(library stock concentration (final ~1000-fold dilution): 2 mM)", "values": [{"measurement": "IRF Lucia reporter activity", "setting": "[1]; [3]", "value": 0.911}, {"measurement": "IRF Lucia reporter activity", "setting": "[1]; agonist: LPS (TLR4) 0.1 ug/mL", "value": 0.725}]}, {"smiles": "CC(C)NCC(O)COc1ccc(COCCOC(C)C)cc1.O=C(O)/C=C/C(=O)O", "note": "(stereo not given) (library stock concentration (final ~1000-fold dilution): 10 mM)", "values": [{"measurement": "IRF Lucia reporter activity", "setting": "[1]; [3]", "value": 1.04}, {"measurement": "IRF Lucia reporter activity", "setting": "[1]; agonist: LPS (TLR4) 0.1 ug/mL", "value": 1.21}]}, {"smiles": "CC(C)NCC(O)COc1ccc(COCCOC(C)C)cc1.O=C(O)/C=C/C(=O)O", "note": "(stereo not given)", "values": [{"measurement": "IRF Lucia reporter activity", "setting": "[2]; [4]", "value": 0.981}]}, {"smiles": "O=C(Nc1ccccc1)c1cc([N+](=O)[O-])ccc1Cl", "note": "(library stock concentration (final ~1000-fold dilution): 10 mM)", "values": [{"measurement": "IRF Lucia reporter activity", "setting": "[1]; [3]", "value": 0.829}, {"measurement": "IRF Lucia reporter activity", "setting": "[1]; agonist: LPS (TLR4) 0.1 ug/mL", "value": 1.44}]}, {"smiles": "O=C(Nc1ccccc1)c1cc([N+](=O)[O-])ccc1Cl", "values": [{"measurement": "IRF Lucia reporter activity", "setting": "[2]; [4]", "value": 1.51}]}, {"smiles": "Cc1onc(-c2ccccc2)c1-c1ccc(S(N)(=O)=O)cc1", "note": "(library stock concentration (final ~1000-fold dilution): 10 mM)", "values": [{"measurement": "IRF Lucia reporter activity", "setting": "[1]; [3]", "value": 1.31}, {"measurement": "IRF Lucia reporter activity", "setting": "[1]; agonist: LPS (TLR4) 0.1 ug/mL", "value": 1.17}]}, {"smiles": "Cc1onc(-c2ccccc2)c1-c1ccc(S(N)(=O)=O)cc1", "values": [{"measurement": "IRF Lucia reporter activity", "setting": "[2]; [4]", "value": 1.37}]}, {"smiles": "CC1=C(CC(=O)O)c2cc(F)ccc2/C1=C\\c1ccc(S(C)=O)cc1", "note": "(stereo not given) (library stock concentration (final ~1000-fold dilution): 10 mM)", "values": [{"measurement": "IRF Lucia reporter activity", "setting": "[1]; [3]", "value": 0.948}, {"measurement": "IRF Lucia reporter activity", "setting": "[1]; agonist: LPS (TLR4) 0.1 ug/mL", "value": 0.822}]}, {"smiles": "CC1=C(CC(=O)O)c2cc(F)ccc2/C1=C\\c1ccc(S(C)=O)cc1", "note": "(stereo not given)", "values": [{"measurement": "IRF Lucia reporter activity", "setting": "[2]; [4]", "value": 0.909}]}]}
